About 2,200 (0.71%) of roughly 310,000 compounds showed an effect of 50% or more. The effect is printed as a negative number. Some of the results follow. Where a SMILES comes first, the peptide text is derived from it. The star is where a group is joined. Cbz = O=C(OCc1ccccc1)*
molecular target: human ether-à-go-go-related gene (hERG) potassium channel (human, UniProt Q12809); test: primary screen, population patch clamp on CHO cells stably expressing hERG
Sequence (Q12809 whole entry, looked up): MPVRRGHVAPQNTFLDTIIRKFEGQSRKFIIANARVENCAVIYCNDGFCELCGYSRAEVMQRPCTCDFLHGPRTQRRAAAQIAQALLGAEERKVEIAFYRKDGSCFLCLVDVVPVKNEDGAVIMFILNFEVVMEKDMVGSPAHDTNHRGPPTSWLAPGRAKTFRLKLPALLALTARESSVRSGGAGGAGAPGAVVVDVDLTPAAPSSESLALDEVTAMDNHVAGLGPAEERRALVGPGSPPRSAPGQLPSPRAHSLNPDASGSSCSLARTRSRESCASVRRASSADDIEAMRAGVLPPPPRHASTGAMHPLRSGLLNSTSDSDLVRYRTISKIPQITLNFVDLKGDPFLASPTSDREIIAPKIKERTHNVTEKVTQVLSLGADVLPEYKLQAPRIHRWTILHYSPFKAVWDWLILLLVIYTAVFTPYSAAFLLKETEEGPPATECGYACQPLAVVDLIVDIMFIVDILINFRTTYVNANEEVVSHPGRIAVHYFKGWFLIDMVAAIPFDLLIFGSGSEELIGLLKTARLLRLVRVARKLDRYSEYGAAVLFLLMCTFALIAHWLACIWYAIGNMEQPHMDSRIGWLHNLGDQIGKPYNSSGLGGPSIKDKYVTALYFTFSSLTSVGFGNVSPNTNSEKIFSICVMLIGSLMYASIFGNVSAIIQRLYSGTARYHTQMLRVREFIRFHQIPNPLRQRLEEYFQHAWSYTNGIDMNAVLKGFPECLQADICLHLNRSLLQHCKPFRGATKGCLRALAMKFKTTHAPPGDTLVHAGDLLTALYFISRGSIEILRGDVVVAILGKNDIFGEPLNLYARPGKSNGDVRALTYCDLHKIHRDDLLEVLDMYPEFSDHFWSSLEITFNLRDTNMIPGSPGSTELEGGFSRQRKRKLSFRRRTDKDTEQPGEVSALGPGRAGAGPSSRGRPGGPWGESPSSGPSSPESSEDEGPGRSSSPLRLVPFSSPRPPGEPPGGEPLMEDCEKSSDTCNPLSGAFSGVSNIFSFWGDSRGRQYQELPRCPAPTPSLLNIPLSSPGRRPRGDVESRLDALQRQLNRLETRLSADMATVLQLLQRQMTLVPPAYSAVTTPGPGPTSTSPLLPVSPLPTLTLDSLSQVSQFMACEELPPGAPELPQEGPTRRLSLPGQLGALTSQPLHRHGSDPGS

Point of comparison: `Cc1ccc(Cn2nnnc2CN2CCC(NC(=O)c3ccccc3F)CC2)cc1`, “hERG current change (%, negative = inhibition) at 1uM” value -8.48%. Against it:
- Cc1cc(N2CCCC2)nc2ccc(NC(=S)NC(C)C)cc12 — lower, -40.8%
- COc1ccc(N=C2NC(=O)/C(=C\c3ccco3)S2)cc1 — higher, 15.1%
- Cc1cc(C)cc(OCC(=O)Nc2nonc2NC(=O)COc2cc(C)cc(C)c2)c1 — higher, 2.96%
- Cc1[nH]c2ccccc2c1/C=N/NC(=O)c1cccc([N+](=O)[O-])c1 — higher, 15.3%
- Cc1occc1C(=O)NN=C1C2CC3CC(C2)CC1C3 — higher, -7.16%
- CCOC(=O)N1CCc2c(sc3nc[nH]c(=O)c23)C1 — higher, 6.97%
- COc1cc(/C=C(\C#N)C(N)=O)ccc1OCc1c(C)no[n+]1[O-] — higher, -2%
- CCC(C)C(NC(=O)OCc1ccccc1)C(=O)NC(Cc1ccc(O)cc1)C(=O)OC (stereo not drawn) (Cbz-Ile-Tyr-OMe; configuration not given here) — higher, 11.3%
- O=C(COC(=O)c1cnc(Cl)c(Cl)c1)NC1CCCCCC1 — higher, 13.7%
- COc1cccc(OCCSc2nc(N)cc(N)n2)c1 — higher, 2.02%
- O=C(Nc1cccc(-c2nnco2)c1)c1cccs1 — higher, 7.86%
- COc1cc(C)c(Br)cc1S(=O)(=O)NCc1cccs1 — lower, -13.7%
- COc1cccc(CC(=O)NNC(=O)c2ccc3c(c2)OCO3)c1 — higher, 1.97%
- CCOC(CCn1c(SCc2ccc([N+](=O)[O-])cc2)nc2ccccc2c1=O)OCC — higher, 4.07%
- Cc1cc(NC(=O)CCC(=O)N(CC(=O)NC2CCCC2)Cc2ccc(F)cc2)no1 — higher, 8.48%
- CCc1ccc(S(=O)(=O)NCc2csc(C)n2)cc1 — higher, 7.86%
- CC(=O)N1CCN(CCN=CC2=C(O)CC(C)(C)CC2=O)CC1 — higher, 8.18%
- CC(Sc1nnc(COc2ccc(Cl)cc2)n1Cc1ccccc1)C(=O)O (stereo not drawn) — higher, 8.19%
- CCCN(CC(=O)Nc1cc(Cl)ccc1Cl)C(=O)c1ccccc1SCC(=O)N1CCCC1 — higher, 3.82%
- CC1(C)CC(=O)C2=C(C1)OC(c1ccncc1)C(C#N)=C2N (stereo not drawn) — higher, -4.07%
- CS(=O)(=O)N(Cc1ccccc1)c1ccc(C(=O)Nc2ccc(C(N)=O)cc2)cc1 — higher, 13.9%
- Cc1cc(=O)[nH]n(CCO)c1=O — higher, 5.37%
- O=C(COc1ccccc1Br)N1CCN(C(=O)c2cccs2)CC1 — higher, -1.69%
- Cc1ccc(NC(=O)CSc2nccn2Cc2ccco2)cc1 — higher, 12.8%
- COc1ccc(NC(=O)CSc2nncn2C)c([N+](=O)[O-])c1 — higher, 7.17%
- CC1Cc2ccccc2N1C1=NS(=O)(=O)c2ccccc21 (stereo not drawn) — higher, 11.7%
- COc1cccc(OC)c1C(=O)Nn1c(-c2cccs2)nc2ccccc2c1=O — higher, 3.68%
- Cc1cc(NC(=O)c2c(-c3ccccc3Cl)noc2C)no1 — higher, 8.68%
- Cc1ccc(S(=O)(=O)NNC(=O)Nc2ccc(Cl)cc2)cc1 — higher, 6.73%
- CCOc1ccccc1NC(=O)COC(=O)CC(NC(N)=O)c1ccc(Cl)cc1 (stereo not drawn) — lower, -44.4%
- COCCNC(=O)c1ccccc1NC(=O)c1ccc(Cl)c(S(=O)(=O)Nc2ccc(C)cc2C)c1 — higher, 6.85%
- N#Cc1ccc(COC(=O)c2ccccn2)cc1 — higher, 10.3%
- O=C(NN1CCCCC1)c1cccc2ccccc12 — higher, 14.3%
- COc1ccccc1NC(=O)c1c(NC(=O)CCC(=O)O)sc2c1CCCCC2 — higher, 13.7%
- Cc1ccsc1C=Nc1ccc(O)cc1 — higher, 5.79%
- Cc1ccc(-c2nnc(SCC(N)=O)nc2-c2ccc(C)cc2)cc1 — higher, 6.23%
- COC(=O)C1=C(C)N(C(C)C)C(=O)C1(NC(C)=O)C(F)(F)F (stereo not drawn) — higher, 4.86%
- CC(C)(C)C(=O)Nc1c(Br)c(C2CC2)nn1-c1ccccc1 — higher, 12.7%
- O=S(=O)(c1ccc(S(=O)(=O)N2CCOCC2)cc1)N1CCCC1 — higher, 14.7%
- CCCCNc1nc2ccccc2n1CC(=O)N1CCc2ccccc2C1 — higher, -6.59%
- CCc1nnc(NC(=O)CSc2nnc(COc3ccccc3C)o2)s1 — higher, 16%
- CC1=C(C(=O)NC(C)CCc2ccccc2)C2(CCC(C)CC2)OC1=O (stereo not drawn) — higher, 6.66%
- O=C(COc1cccc2ccccc12)Nc1ccc(Cl)cc1C(=O)O — higher, 15.5%
- N#Cc1c(-c2ccc(Br)cc2)nc2n(c1=O)CCCS2 — higher, 16.5%
- O=C1c2ccccc2C(=O)N1CCc1c[nH]c2ccc(O)cc12 — higher, 11.4%
- CCn1c(SCC(=O)N2CCc3ccccc32)nnc1-c1ccncc1 — higher, 10%
- CCC1CSC(Nc2ccc(C(=O)/C=C/c3ccc(OC)c(OC)c3)cc2)=N1 (stereo not drawn) — higher, -0.602%
- COc1cc(C(C)=O)ccc1OCC(=O)Nc1ccc2nc(C)sc2c1 — higher, 13.9%
- CCCn1c(=O)c2c(nc3n2CCCN3Cc2ccccc2)n(C)c1=O — higher, -3.54%
- O=S(=O)(Nc1ccc2c(c1)CCC2)c1cccs1 — higher, -4.89%
- Cn1cc(P(=O)(N2CCOCC2)N2CCOCC2)cc1P(=S)(N1CCOCC1)N1CCOCC1 — higher, 17%
- c1ccc(CNc2nc(-c3ccccn3)nc3ccccc23)cc1 — higher, 1.64%
- COc1ccccc1C(=O)c1c(C)c(CCC#N)n2ccccc12 — higher, 5.71%
- CCc1cccc(CC)c1NC(=O)COc1ccccc1C(=O)c1cc(C#N)c(=O)n(C2CCCCC2)c1 — higher, 4.98%
- CCC(C)(C)C(=O)O — higher, 10.2%
- N#Cc1ccccc1S(=O)(=O)N1CCN(C(=O)C2CCC2)CC1 — higher, 8.39%
- CC(C)C(=O)NC(=S)Nc1ccc(S(=O)(=O)N(C)Cc2ccccc2)cc1 — higher, 9.29%
- Cc1cc(C)c(NC(=O)CNC(=O)COC(=O)C2CCN(c3ccc(C(F)(F)F)cn3)CC2)c(C)c1 — higher, 7.67%
- CNCc1ccccc1OCc1ccc(F)cc1.Cl — higher, 13.4%
- COc1ccc(-c2[nH]ncc2CN(C)Cc2c(C)n[nH]c2C)c(OC)c1 — higher, 11.3%
- CCCCOc1ccc(NC(=O)c2cc(F)c(F)cc2Cl)cc1 — higher, 10.1%
- O=C(NC1CCCCC1)C1CCN(c2cnccn2)CC1 — higher, 14.8%
- O=c1c2ccccc2nc(SCc2ccccc2Cl)n1Cc1ccccc1 — higher, 6.18%
- Cc1nnc(SCCC(C)C)[nH]c1=O — higher, 14%
- O=C(NCC(c1cccnc1)N1CCOCC1)Oc1ccccc1 (stereo not drawn) — higher, 2.83%
- O=C(Nc1ccc(N2CCOCC2)cc1)C1CCN(S(=O)(=O)c2ccccc2F)CC1 — higher, 7.24%
- O=C(NC(=S)N(CCO)Cc1ccccc1)c1cc(Br)ccc1Cl — higher, 13.8%
- COC(=O)c1sccc1NC(=S)N1CCN(c2cccc(C)c2C)CC1 — higher, -4.55%
- CCN(CC(=O)Nc1c(F)cccc1F)C(=O)C1COc2ccccc2O1 (stereo not drawn) — higher, 5.09%
- CC(=O)c1ccccc1Oc1cc(NN2CCCCC2)c([N+](=O)[O-])cc1[N+](=O)[O-] — higher, 8.88%
- CC(=O)OCn1ncc(N2CCOCC2)c(Br)c1=O — higher, 12.9%
- COC(=O)Nc1ccc(S(=O)(=O)N2CCCc3ccccc32)cc1 — higher, 17.4%
- C[C@H]1CCC(=O)N(CCSc2ccc(Br)cc2)CC1 — higher, 8.63%
- Cc1ccc(S(=O)(=O)Nc2ccc(S(=O)(=O)NCC3CCCO3)cc2)cc1 (stereo not drawn) — higher, 17.3%
- COc1ccc(-c2nc(C#N)c(N3CCN(c4ccccc4)CC3)o2)cc1 — higher, 10.2%
- CCOC(=O)CSC1=NC(=O)CS1 — higher, 12.4%
- CC(OC(=O)c1ccccc1C(=O)N(C)c1ccccc1)C(=O)Nc1ccccc1[N+](=O)[O-] (stereo not drawn) — higher, -4.16%
- O=C(OCc1cccc2ccccc12)C1CC(=O)N(c2ccccc2)C1 (stereo not drawn) — higher, 7.98%
- COc1cccc(C2CC(c3ccc(C(C)C)cc3)n3nc(N)nc3N2)c1 (stereo not drawn) — higher, 3.49%
- O=C1/C(=C/c2ccc(F)cc2)SC(=S)N1N1CCOCC1 — higher, 13.3%
- CCOc1ccc(NC(=O)N2CCC(c3nc4ccccc4o3)CC2)cc1 — higher, 10.3%
- COc1ccc(SC[C@H](Cc2ccccc2)N2CCN(C)CCC2=O)cc1 — lower, -13.2%
- CCOc1ccc(CC(=O)NC2CCN(Cc3ccccc3)CC2)cc1 — higher, 5.5%
- CC1CN(CCS(=O)(=O)c2cc(Cl)ccc2Cl)CC(C)O1 (stereo not drawn) — higher, 9.16%
- CCCCN(Cc1ccccc1)C(=O)C1CCN(Cc2sccc2C)CC1.O=C(O)C(=O)O — lower, -35.7%
- COc1ccc(/C(N)=N/OC(=O)CCCN2C(=O)c3ccccc3C2=O)cc1OC — higher, 3.99%
- O=C(Cc1ccc(Cl)cc1)Nc1ccc(-c2nnc(-c3ccco3)o2)cc1 — higher, 14.8%
- Br.CC(=O)Nc1nc(C)c(-c2csc(Nc3ccccn3)n2)s1 — higher, 14.2%
- O=S(=O)(NCC(c1cccnc1)N1CCOCC1)c1cccs1 (stereo not drawn) — higher, 3.45%

Reference: PMC4336329 (PLoS ONE, 2015)
